Publication PMC11341029 (PLOS Pathogens, 2024)
Results are given in words; binding and its absence hold for the method and conditions named. For some of these results: Binding seen in cells or lysates may run through a third protein. Some entries that bind do so weakly or less than the wild type. Tags and fused reporters may be left off the sequences shown. One block for each molecule: values may come before it.

What was measured:
SLC39A9-HA = target: T1, SLC39A9-HA (UniProt Q9NUM3); assay: co-IP
T1 sequence: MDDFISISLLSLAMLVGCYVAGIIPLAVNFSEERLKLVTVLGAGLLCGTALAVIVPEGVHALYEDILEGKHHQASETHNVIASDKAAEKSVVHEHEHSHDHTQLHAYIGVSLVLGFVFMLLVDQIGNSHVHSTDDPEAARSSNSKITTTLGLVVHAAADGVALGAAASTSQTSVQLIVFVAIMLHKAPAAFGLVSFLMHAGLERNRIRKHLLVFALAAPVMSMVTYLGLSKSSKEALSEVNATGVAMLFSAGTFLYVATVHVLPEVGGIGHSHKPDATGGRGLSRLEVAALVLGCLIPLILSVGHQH

SLC39A9-Flag = target: T2, SLC39A9-Flag (UniProt Q9NUM3); assay: co-IP
T2 sequence: T1 sequence

NPC1-Flag (human) = NPC1-Flag (human) (UniProt O15118); assay: co-IP
NPC1-10×His-Flag = target: T3, NPC1-10×His-Flag (human, UniProt O15118 23-1278); assay: pull-down; both purified
T3 construct: also called purified NPC1-Flag; full-length NPC1 protein
T3 sequence (looked up): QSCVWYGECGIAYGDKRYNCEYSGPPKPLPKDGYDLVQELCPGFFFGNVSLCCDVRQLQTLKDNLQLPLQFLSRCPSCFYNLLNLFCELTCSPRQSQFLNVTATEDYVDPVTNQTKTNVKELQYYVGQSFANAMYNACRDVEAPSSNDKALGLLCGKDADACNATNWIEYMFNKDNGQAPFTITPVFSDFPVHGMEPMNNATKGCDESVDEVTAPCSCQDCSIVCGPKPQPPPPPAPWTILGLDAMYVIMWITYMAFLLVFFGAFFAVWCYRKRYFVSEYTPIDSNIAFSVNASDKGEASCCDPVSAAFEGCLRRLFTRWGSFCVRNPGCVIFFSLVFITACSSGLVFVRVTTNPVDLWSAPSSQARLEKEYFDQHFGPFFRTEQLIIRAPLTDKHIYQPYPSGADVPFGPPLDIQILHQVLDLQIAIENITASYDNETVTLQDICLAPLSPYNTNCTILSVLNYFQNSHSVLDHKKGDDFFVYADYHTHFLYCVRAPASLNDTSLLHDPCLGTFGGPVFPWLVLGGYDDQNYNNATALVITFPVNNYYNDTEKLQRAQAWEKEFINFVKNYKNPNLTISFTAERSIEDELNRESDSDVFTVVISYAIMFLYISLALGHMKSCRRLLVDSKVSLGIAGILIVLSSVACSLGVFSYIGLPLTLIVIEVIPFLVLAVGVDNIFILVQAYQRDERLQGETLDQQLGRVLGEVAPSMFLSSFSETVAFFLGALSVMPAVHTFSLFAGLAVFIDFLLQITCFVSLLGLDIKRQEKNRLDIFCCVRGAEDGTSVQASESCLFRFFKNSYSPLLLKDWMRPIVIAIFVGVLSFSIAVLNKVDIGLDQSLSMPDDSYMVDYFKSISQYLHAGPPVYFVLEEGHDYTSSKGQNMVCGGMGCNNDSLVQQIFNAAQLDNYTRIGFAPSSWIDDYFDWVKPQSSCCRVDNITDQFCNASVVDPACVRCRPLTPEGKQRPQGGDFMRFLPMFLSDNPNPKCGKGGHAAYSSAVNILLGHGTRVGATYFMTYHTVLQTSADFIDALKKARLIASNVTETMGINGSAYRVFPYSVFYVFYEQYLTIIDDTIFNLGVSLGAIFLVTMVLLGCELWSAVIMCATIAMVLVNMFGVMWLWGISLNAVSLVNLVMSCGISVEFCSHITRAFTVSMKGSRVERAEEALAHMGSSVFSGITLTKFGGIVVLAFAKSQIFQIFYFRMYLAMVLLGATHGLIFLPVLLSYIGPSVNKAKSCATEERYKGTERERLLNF

binding (SLC39A9-HA): binds
Molecule: NPC1-CTD-Flag (800-1278aa) (from UniProt O15118 800-1278) (domain or fragment)

binding (NPC1-Flag (human)): binds
B1: SLC39A9-HA (protein, UniProt Q9NUM3 1-307)
chain: T1 sequence

binding (NPC1-10×His-Flag): binds
B2: SLC39A9-6×His-2×Strep (protein, UniProt Q9NUM3 1-307)
chain: T1 sequence

More lines, now with the values behind:

Molecule: NPC1-NTD-MLD-Flag (1-800aa) (from UniProt O15118 23-800) (domain or fragment)
binding (SLC39A9-HA): no binding

Molecule: NPC1-NTD-Flag (1-350aa) (from UniProt O15118 23-350) (domain or fragment)
binding (SLC39A9-HA): no binding

Molecule: NPC1-Flag (from UniProt O15118 23-1278) (receptor)
binding (SLC39A9-HA): binds

Molecule: EBOV GP-HA (from UniProt Q05320)
binding (SLC39A9-Flag): binds
